Results taken from PubChem BioAssay AID1159614 (National Center for Advancing Translational Sciences (NCATS), 2016).
In all, about 45,000 compounds went through this assay and about 65 (0.1%) were called active. Calls follow the shape of the dose curve; as a rule, active = well fitted activation curve with a large enough effect; inconclusive = small, poorly fitted or top-dose-only effect; inactive = no such curve, though single readings can be large or run the other way. This is one part of the list.

The molecules below were run against Galactocerebrosidase (Homo sapiens) (UniProt P54803) (assay: A Novel Cell-Based Assay to Identify Small Molecules for B -Galactocerebrosidase). Details: 145M-Twi-hGALC-G270D cells, HMU-beta-Gal fluorescence, 48 h; series mostly up to 57.5 µM; activation: at the top concentration.
Outline: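 qHTS, 1536-well; 145M-Twi-hGALC-G270D cells (WT line also made) in DMEM/F12 + 10% FBS; compound incubation on live cells; HMU-β-gal 0.1 mM final, pH 5.2, NaTC; carbonate stop; fluorescence increase = enhanced residual activity.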
Also: 0% is about no effect; nearly all actives have a fitted effect of over 65% in size.

Chain of UniProt P54803 (P54803 whole entry, looked up): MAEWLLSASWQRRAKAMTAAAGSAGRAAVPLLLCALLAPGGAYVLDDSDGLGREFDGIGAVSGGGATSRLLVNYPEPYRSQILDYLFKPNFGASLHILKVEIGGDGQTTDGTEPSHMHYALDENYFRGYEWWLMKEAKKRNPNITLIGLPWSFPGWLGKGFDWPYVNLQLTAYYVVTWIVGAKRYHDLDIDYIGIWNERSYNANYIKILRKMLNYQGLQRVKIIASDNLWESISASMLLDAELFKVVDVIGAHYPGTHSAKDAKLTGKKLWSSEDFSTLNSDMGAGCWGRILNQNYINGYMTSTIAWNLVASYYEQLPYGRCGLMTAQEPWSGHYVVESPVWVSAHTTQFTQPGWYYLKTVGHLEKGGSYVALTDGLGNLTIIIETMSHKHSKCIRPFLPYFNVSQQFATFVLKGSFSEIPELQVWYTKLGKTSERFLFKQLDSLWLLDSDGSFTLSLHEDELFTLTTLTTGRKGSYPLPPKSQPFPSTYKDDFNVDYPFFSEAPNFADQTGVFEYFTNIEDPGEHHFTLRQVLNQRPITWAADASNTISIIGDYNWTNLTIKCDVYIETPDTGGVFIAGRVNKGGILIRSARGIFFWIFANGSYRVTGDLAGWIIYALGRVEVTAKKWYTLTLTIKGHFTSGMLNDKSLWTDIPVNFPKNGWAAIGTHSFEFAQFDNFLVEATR

Structure (SMILES) | activation
O=C(Nc1cccc(Cl)c1Cl)c1cc(S(=O)(=O)N2CCCc3ccccc32)ccc1F | inactive: -3.66%
COc1ccc(CNC(=O)CSc2ncc3c(n2)-c2cc(Cl)ccc2N(C)S3(=O)=O)cc1 | inactive: -17.5%
CC(C)c1cnc2c(c1SCC(=O)Nc1ccc(C(N)=O)cc1)c(=O)n(C)c(=O)n2C | inactive: -15.3%
CCOC(=O)Cn1c(-c2cccs2)cc2cc(Cl)ccc21 | inactive: -5.2%
O=C1CCCc2c(O)cccc21 | inactive: -6.91%
COC(=O)c1c(NC(=O)/C=C/c2ccc(OC)cc2)sc2c1CCC2 | inactive: -2.53%
COc1ccc(CCNC(=O)c2ccc3c(c2)N(Cc2cccc(Cl)c2)C(=O)c2ccccc2S3=O)cc1OC (stereo not drawn) | inactive: -10.8%
Cc1ccc(NC(=O)Nc2cccs2)c(C)c1 | inactive: -15.6%
CCN1C(=O)c2ccccc2Sc2ccc(NC(=O)c3cccc(C)c3)cc21 | inactive: -14.3%
CCOC(=O)c1cc(OC(=O)c2ccccc2OC)n(-c2ccccc2)n1 | inactive: -16.2%
COc1ccc(N(C(=O)c2cccc(C)c2)S(=O)(=O)c2ccc3c(c2)n(C)c(=O)n3C)cc1 | inactive: -18.4%
CN(CCCNC(=O)c1cc2c(=O)n(C)c3ccccc3c2s1)Cc1ccccc1 | inactive: -9.65%
O=C(Cn1c(=O)n(-c2ccccc2)c(=O)c2ccc(C(=O)NCc3ccc4c(c3)OCO4)cc21)Nc1ccc(F)c(Cl)c1 | inactive: -12.5%
CCc1ccc(N(CC)C(=O)c2sc3nc4n(c(=O)c3c2C)CCCC4)cc1 | inactive: -11.4%
CCC(C)NC(=O)CSCc1nc(-c2ccc(C)cc2)oc1C (stereo not drawn) | inactive: -12.8%
O=C(c1ccccc1Br)N(Cc1ccccc1F)C1CCS(=O)(=O)C1 (stereo not drawn) | inactive: -20%
CN1CCN(C(=O)c2ccc3c(c2)N(Cc2ccc(Cl)cc2)C(=O)c2ccccc2S3(=O)=O)CC1 | inactive: -6.43%
COc1ccc(OCC(=O)N(Cc2ccc(C)o2)C2CCS(=O)(=O)C2)cc1 (stereo not drawn) | inactive: -16.1%
CCOc1ccc(CCNC(=O)c2ccc(-c3nc(CSc4ccccc4)c(C)o3)cc2)cc1 | inactive: -15.1%
Cc1cccc(CC(=O)NCCc2sc3nc(-c4ccc(F)cc4)nn3c2C)c1 | inactive: -12.7%
O=C(Cn1c(=O)ccc2cc(S(=O)(=O)N3CCCC3)ccc21)Nc1ccc(Cl)cc1 | inactive: -9.18%
Cc1ccc(Cl)cc1NC(=O)CSCc1cnn(-c2ccccc2)c1-n1cccc1 | inactive: -11.8%
Cn1nnnc1SCCCNCc1ccccc1OCc1ccc(F)cc1 | inactive: -11%
Cc1cccc(NS(=O)(=O)c2ccc3c(c2)CCN3C(=O)C2CC2)c1C | inactive: -1.29%

Structure (SMILES) | activation
NS(=O)(=O)c1cc(-c2nn[nH]n2)c(NCc2cccs2)cc1Cl | inactive: -7.86%
COc1ccccc1NC(=O)CN1C(=O)CCSc2ccccc21 | inactive: -29.6%
O=C(Cn1ncc2c3ccccc3n(Cc3cccc(Cl)c3)c2c1=O)NCCC1=CCCCC1 | inactive: -9%
Cc1ccccc1Cn1c(=O)n(CCCCCC(=O)NCc2ccc3c(c2)OCO3)c(=O)c2sccc21 | inactive: -6.83%
CO[C@@]1(NC(=O)CSCC#N)C(=O)N2C(C(=O)O)=C(CSc3nnnn3C)CS[C@@H]21 | inactive: 9.38%
CCOc1ccc(C(=O)NCCc2sc(-c3ccc(F)cc3)nc2C)cc1 | inactive: -10.2%
COc1ccc(Nc2ncc(C(=O)N3CCN(c4ccccc4OC)CC3)c3ccccc23)cc1 | inactive: -31.6%
CCOC(=O)c1ccc(NC(=O)CN2C(=O)c3cccnc3Sc3ccccc32)cc1 | inactive: -8.37%
Cn1c(SCc2ccccc2Cl)nc(=O)c2c1NC(=O)CC2c1cc(F)ccc1F (stereo not drawn) | inactive: -7.33%
CCOc1ccc(NC(=O)Nc2c[nH]c(=O)[nH]c2=O)cc1 | inactive: -13.3%
CCN(CC)c1ccc(CNS(=O)(=O)c2cc3c(cc2C)NC(=O)CO3)cc1 | inactive: -12%
COc1ccc(NC(=O)CSc2ncc3c(n2)-c2ccccc2N(C)S3(=O)=O)cc1Cl | inactive: -5.07%
CCOc1ccccc1CNC(=O)c1ccc2c(c1)nc1n2CCC(C)C1 (stereo not drawn) | inactive: -3.92%
CCOC(=O)c1ccccc1NC(=O)Cn1c(=O)n(-c2ccc(CC)cc2)c(=O)c2c(C)c(C(=O)N(C)C)sc21 | inactive: -5.13%
O=C(Cn1c(SCC(=O)Nc2ccc(F)cc2)nc2ccccc21)NCc1ccc(Cl)cc1 | inactive: -11.4%
Nc1ncc(S(=O)(=O)Nc2ccc(OC(F)(F)F)cc2)cn1 | inactive: -4.92%
CC(C)Sc1nc2sc3c(c2c(=O)n1-c1ccccc1)CCCC3 | inactive: -24.9%
CC(=O)c1ccc(N2C(=O)Nc3ccccc3S2(=O)=O)cc1 | inactive: -4.3%
Cc1ccc(N2CC(NC(=O)c3ccccc3Br)CC2=O)cc1 (stereo not drawn) | inactive: -3.68%
O=C(Nc1ccc(F)c(Cl)c1)C1CCN(S(=O)(=O)c2ccc3c(c2)CCCN3C(=O)C2CCC2)CC1 | inactive: 14.3%
Cc1ccc(CSc2cn(CCNC(=O)c3cccs3)c3ccccc23)cc1 | inactive: -39.6%
CCOc1ccc(NC(=O)c2nnn(-c3ccc(F)c(Cl)c3)c2C)cc1 | inactive: -21.3%
CC1=C(C(=O)Nc2ccccc2)C(c2ccccn2)n2nc(SCc3ccccc3Cl)nc2N1 (stereo not drawn) | inactive: 13.2%
Cc1ccccc1NC(=O)Cn1cc(S(=O)(=O)N2CCCC2)c(S(=O)(=O)N2CCCC2)c1 | inactive: -11.6%
